In patent publication US20240247069A1, “FGFR3 BINDING MOLECULES AND METHODS OF USE THEREOF” (Regeneron Pharmaceuticals, Inc., priority 2023, published 2024):

Tests used:
FGFR3 = assay: Agonist activity of parental anti-FGFR3 antibodies (Table 1); format: cell-based
hFGFR3c (mmh) = molecular target: T1, hFGFR3c (mmh) (Homo sapiens, UniProt P22607); assay: Biacore binding to human FGFR3c
T1 construct: biotinylated human or mouse FGFR3b-ecto.mmH, human FGFR3c-ecto.mmH; mmh (own knowledge: myc-myc-hexahistidine) (C)
T1 sequence (P22607 23-375 limits assumed): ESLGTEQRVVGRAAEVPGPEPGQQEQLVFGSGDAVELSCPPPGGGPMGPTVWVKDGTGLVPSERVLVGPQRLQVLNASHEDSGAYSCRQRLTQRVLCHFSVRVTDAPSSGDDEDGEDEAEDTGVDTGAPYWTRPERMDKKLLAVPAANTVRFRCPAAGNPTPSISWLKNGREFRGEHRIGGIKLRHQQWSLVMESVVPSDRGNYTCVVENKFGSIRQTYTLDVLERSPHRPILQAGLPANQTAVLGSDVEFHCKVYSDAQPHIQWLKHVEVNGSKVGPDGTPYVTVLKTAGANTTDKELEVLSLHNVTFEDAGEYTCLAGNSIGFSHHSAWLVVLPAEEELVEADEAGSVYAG
Protocol: (§1) Affinity and mechanism of action of binding of anti-FGFR3 antibodies to FGFR3 isoforms were determined by Biacore analysis. In brief, in-house generated monoclonal anti-human Fc antibody was immobilized on the surface of a CM-5 sensor chip. Different concentrations of FGFR3 antibodies were injected at 50 μL/min for 4 min and the assay was performed at 25° C. The mAb binding response was monitored and, for low affinity receptors, steady-state binding equilibrium was calculated. Kinetic association (ka) and dissociation (kd) rate constants were determined by processing and fitting the data to a 1:1 binding model using Scrubber 2.0 curve fitting software. Binding dissociation equilibrium constants (KD) and dissociative half-lives (t1/2) were calculated from the kinetic rate constants using the formula: KD (M)=kd/ka; and t1/2 (min)=(ln2/(60*kd). Some KD values were derived using the steady state equilibrium dissociation constant; When no KD values could be derived, it was marked as NB (no binding observed) or IC (inconclusive affinity determination due to low specific RU signal).

mfFGFR3b (mmh) = assay: Biacore binding to monkey FGFR3b; details: unit inferred
Protocol: as §1

moFGFR3b (mmh) = molecular target: T2, moFGFR3b (mmh) (Mus musculus, UniProt Q61851); assay: Biacore binding to mouse FGFR3b
T2 construct: biotinylated human or mouse FGFR3b-ecto.mmH, human FGFR3c-ecto.mmH; mmh (own knowledge: myc-myc-hexahistidine) (C)
T2 sequence (Q61851 21-371 isoform Q61851-2): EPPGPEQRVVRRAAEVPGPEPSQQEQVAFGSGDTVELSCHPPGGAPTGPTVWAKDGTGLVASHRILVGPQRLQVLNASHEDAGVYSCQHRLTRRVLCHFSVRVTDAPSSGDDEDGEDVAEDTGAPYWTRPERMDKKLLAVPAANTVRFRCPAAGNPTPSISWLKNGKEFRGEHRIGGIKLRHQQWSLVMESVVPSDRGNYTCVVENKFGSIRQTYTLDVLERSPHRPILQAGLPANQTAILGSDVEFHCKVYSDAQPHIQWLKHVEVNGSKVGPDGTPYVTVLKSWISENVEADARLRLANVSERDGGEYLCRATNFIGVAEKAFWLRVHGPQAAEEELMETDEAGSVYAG
Protocol: as §1

[1] = system: RT4 bladder cancer cells (FGFR3-TACC3 fusion); assay: RT4 spheroid proliferation assay (CellTiter-Glo 3D); format: cell-based, human
Protocol: Two human bladder cancer cell lines, UMUC14 (Sigma-Aldrich) and RT4 (ATCC), which express an S249C mutation of FGFR3 or express TACC3-FGFR3 fusion mutation, respectively, were maintained in culture according to the suppliers' recommendations.
7500 UMUC14 or 5000 RT4 bladder cancer cells were seeded in U-bottom low attachment 96-well spheroid plate (Corning) in culture medium (MEM medium with 10% FBS, 1% non-essential amino acids, Pen/Strep). Cells were cultured for 24-48 hours at 37° C. 5% CO2 to allow tumor spheroid formation. Tumor spheroids were treated with antibodies at concentrations ranging from 100 nM to 15.2 pM with 1:3 serial dilution as indicated in the figures. Cells were cultured for 5-6 days, and then subjected to CellTiter-Glo 3D viability assays (Promega) following the manufacturer's protocol. Luminescence signal was read on PE Envision plate reader. Cell proliferation was expressed as percentages of untreated controls. Data were analyzed using GraphPad Prism software using three parameter nonlinear curve fit.

[2] = system: BaF3 cells expressing FGFR3 S249C+V557M; assay: BaF3 cell proliferation, FGFR3 S249C+V557M; format: cell-based; details: FGF1/heparin, 72 hours
Text: cDNA expressing FGFR3 mutants (S249C, S248C, Y375C, V555M, V555L, S249C+V555M, or S249C+V555L) were synthesized and cloned into pLVX Lenti-viral vector (Thermo Fisher). Viral particles were generated by lipofectamine transfection of LentiX 293T cells using Lenti-X packaging single shots following manufacturer's protocol (Clontech/Takara) and concentrated using Lenti-X concentrator and titer determined using Lenti-X p24 rapid titer kit (Clontech/Takara). BaF3 cells were transduced with virus at ˜0.3 MOI.
For cell proliferation assays, engineered BaF3/hFGFR3 cells grown in complete medium were washed and plated in IL-3-free culture media±5 μg/ml heparin and 1 nM human FGF1. Cells were plated out at 1×10^5 cells/well into 96-well plates, followed by the addition of 1:3 serially diluted antibodies as indicated in figures. After addition of antibodies, cells were incubated at 37° C. for 72 h followed by the addition of CellTiter-Glo™ (Promega) reagent. The luminescent signal was detected by Envision plate reader (PerkinElmer). Data was analyzed using Prism software (GraphPad). […]

[3] = system: MAPK phosphorylation in BaF3 cells expressing WT hFGFR3b; assay: Western blot of FGF1/heparin induced MAPK phosphorylation in BaF3 WT hFGFR3b cells; format: cell-based; details: 100 nM antibody overnight; 100 nM FGF1 + 10 μg/ml heparin 15 min
Protocol: To evaluate receptor phosphorylation and downstream signaling, cells were serum starved overnight in the presence or absence of indicated antibodies followed by ligand (100 ng/ml human FGF1 and 10 μg/ml heparin) stimulation for 15 min at 37° C. Equal amounts of cell lysates were analyzed by SDS-PAGE. Blots were incubated with pMAPK, MAPK or actin antibodies followed by incubation with HRP secondary antibody. For FGFR3 phosphorylation, equal amounts of cell lysates were incubated with pY100 Sepharose beads overnight and non-specific binding was removed by washes with lysis buffer. Immunoprecipitated proteins were analyzed by reducing or non-reducing SDS-PAGE and blotted with FGFR3 antibody.

B1: mAb063: parental anti-FGFR3 antibody; anchor or additional arm; parent of BiP063N2 (antibody)
heavy: QVQLQESGPGLVKPSETLSLTCTVSGDSINSYFWSWIRQLPGKELEWIGHIYSSGSTRYNPSLQSRVTISIDTSKNQFSLKLSSVTAADTAVYYCARGASAVDYWGQGTLVTVSSASTKGPSVFPLAPCSRSTSESTAALGCLVKDYFPEPVTVSWNSGALTSGVHTFPAVLQSSGLYSLSSVVTVPSSSLGTKTYTCNVDHKPSNTKVDKRV[human IgG4 Fc with S228P (EU numbers) cut from this listing]
light: EIVLTQSPGTLSLSPGERATLSCRTSQSISSGYLAWYQQKPGQAPRLLIYGASRRATGIPDRFSGSGSGTDFTLTISRLEPEDFVVYYCQQYGSSPYTFGQGTKLEIKRTVAAPSVFIFPPSDEQLKSGTASVVCLLNNFYPREAKVQWKVDNALQSGNSQESVTEQDSKDSTYSLSSTLTLSKADYEKHKVYACEVTHQGLSSPVTKSFNRGEC
Which results are given for B1?
Agonist Activity (percent value of the cell) (FGFR3): 16.1%; binding to monomeric human FGFR3c (in words) (hFGFR3c (mmh)): not detected; Kd (mfFGFR3b (mmh)): 2.02 nM; binding to monomeric mouse FGFR3b (in words) (moFGFR3b (mmh)): shown to bind; antiproliferative activity in RT4 spheroid proliferation assay ([1]; 5 to 6 days treatment): modest inhibitory activity; impact of IgG subclass on activity on RT4 cell proliferation ([1]; IgG1, IgG2, IgG4s backbones): modest effect on IC50; effect on growth of BaF3 cells expressing FGFR3 S249C+V557M [2]: robustly inhibited the growth; pMAPK after FGF1/heparin stimulation, WT hFGFR3b [3]: no increases in pMAPK
